According to PubChem BioAssay AID1671193 (National Center for Advancing Translational Sciences (NCATS), 2021):
Values joined by “and” are separate entries in the source; they are usually repeats but may differ in a detail not shown here. Identical values can stand only once. Screen size: about 150,000 compounds; about 180 (0.12%) were called active. The shares of active, inactive and inconclusive entries below differ from those in the screen. Calls come from the whole dose curve; as a rule, active = well fitted cell-killing curve with a large enough effect; inconclusive = small, poorly fitted or top-dose-only effect, or effect the other way; inactive = flat fitted curve, though single readings scatter. Where the call is inconclusive, the potency comes from a doubtful curve fit.

test: GF-AFC viability counterscreen for inhibitors of alpha-synuclein gene (SNCA) expression; details: HEK-293-SNCA-luc viability, GF-AFC fluorescence, 24 h; activity change, negative = cytotoxicity: at 57.1 µM (top of the series) unless noted; note: nearly all actives have a fitted effect of over 30% in size;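 for activity change, negative = cytotoxicity: 0% = DMSO-treated cells and -100% = medium-only wells without cells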
Method in brief: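 Cytotoxicity counterscreen: after 24 h compound treatment of genome-edited SNCA-luciferase HEK-293 cells, live-cell protease substrate GF-AFC read by fluorescence after 30 min; activity scaled between DMSO (0%) and medium-only (-100%), curves Hill-fitted.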
Potency is the fitted concentration of half-maximal effect; tags give direction and shape of the fitted curve.

Row | SMILES | Potency | activity change, negative = cytotoxicity
1 | O=c1c2cc3c(cc2nc2sc(Nc4cccc([N+](=O)[O-])c4)nn12)OCO3 | inconclusive: 7.08 µM [rising, single point] | –
2 | O=C(N1CCC(c2noc(C3CC3)n2)C1)C1(c2ccccc2)CC1 (stereo not given) | – | inactive: 0.599%
3 | C[C@]12CC[C@@H]3c4ccc(O)cc4CC[C@H]3[C@H]1CC[C@H]2O | inconclusive: 42.9 µM [cytotoxic, single point] | –
4 | Cc1nn2c(c1-c1ccccc1N1CCCC1)N(C(=O)c1cc3ccccc3n1C)CCC2 | inconclusive: 28.2 µM [cytotoxic, partial curve] | –
5 | Cc1ccc2onc(CC(=O)N3CCN(c4cccc(Cl)c4)CC3)c2c1 | inconclusive: 10 µM [rising, partial curve, poor fit] | –
6 | COc1ccc(Oc2ncc3nc(-c4cn(C)c5ccccc45)c(=O)n(CCC#N)c3n2)cc1 | inconclusive: 12.6 µM [rising, partial curve, poor fit] | –
7 | CCN1CCN(C(=O)c2cn3cc(-c4cccc(OC)c4)sc3n2)CC1 | – | inactive: -5.37%
8 | CC(=O)NC[C@H]1CCN(S(=O)(=O)c2cccc(C#N)c2)C[C@H]1N(C)C | – | inactive: 7.69% [at 12.5 µM]
9 | O=C(C1CCCC1)N1CC2(CCN(Cc3ccccn3)CC2)Cc2ccccc21 | – | inactive: -25.4% [at 87.6 µM]
10 | COc1ccc(CC(=O)Nc2nc3c(s2)CCCC3)cc1 | inconclusive: 5.62 µM [rising, full curve, poor fit] | –
11 | Cn1cnc(C(=O)N2CCCCCCn3c(nnc3-c3ccc(F)cc3)CC2)c1 | inconclusive: 6.31 µM [cytotoxic, single point] | –
12 | CCc1nc2cc(N3CCC(C(=O)NCc4ccccc4F)CC3)cnc2nc1CC | inconclusive: 15.8 µM [rising, partial curve, poor fit] | –
13 | Cc1ccc(C(=O)N2CCC(N3CCCNC3=O)CC2)cc1 | inactive | –
14 | Cc1ccc(C)c(NC(=O)C(CC(C)C)N2Cc3ccccc3C2=O)c1 (stereo not given) | inconclusive: 22.4 µM [cytotoxic, single point] | –
15 | COc1ccc(CN2CCC(O)(CN3CCCCC3)C2)cc1Cl (stereo not given) | inconclusive: 20 µM [cytotoxic, single point] | –
16 | O=C(NC1CCCCC1)C1CCN(C(=O)c2ncn3c2COC(c2ccc(Cl)cc2)C3)CC1 (stereo not given) | inconclusive: 3.55 µM [rising, single point] | –
17 | CC1CCN(C(=O)Cn2c(-c3cccs3)cc3cc(Cl)ccc32)CC1 | inconclusive: 7.08 µM [cytotoxic, full curve] | –
18 | COc1ccc(-c2c(C)c3ccc(O)c(CN4CCOCC4)c3oc2=O)cc1OC | inconclusive: 25.1 µM [rising, partial curve, poor fit] | –
19 | Cc1ccc(C(=O)N2CCC3(CC2)CCN(Cc2cccs2)c2ccccc2O3)cc1 | inconclusive: 35.5 µM [cytotoxic, single point] | –
20 | Cc1nc2ccccn2c(=O)c1CCN1CCC(C(=O)c2ccc(F)cc2)CC1 | inconclusive: 1 µM [rising, full curve, poor fit] | –

Row | SMILES | Potency | activity change, negative = cytotoxicity
21 | O=C(Nc1ccc(C(F)(F)F)cc1)c1cc(S(=O)(=O)NC2CCCCCC2)ccc1F | inconclusive: 39.8 µM [cytotoxic, single point] | –
22 | Nc1ccc(-c2ccc3ncc4ccc(=O)n(-c5cccc(C(F)(F)F)c5)c4c3c2)cn1 | inconclusive: 2.4 nM [cytotoxic, full curve] and inconclusive: 23.8 nM [cytotoxic, full curve] | –
23 | CCSc1ncc(-c2c(-c3ccccc3)ncn2CC[C@@H](C)CO)cn1 | – | inactive: -22.6%
24 | CC1=C[C@@H](CNC(=O)c2ccccc2)[C@H](C(C)C)C[C@H]1CC(=O)N1CCOCC1 | inconclusive: 28.2 µM [cytotoxic, partial curve, poor fit] | –
25 | Cc1cc(C(=O)N2CCCCCCNC(=O)[C@@H]3C[C@@H](c4nc(Cc5ccccc5)no4)C[C@@H]32)nn1C | – | inactive: 1.82%
26 | Cc1ccccc1N1CCN(C2CCCN(C/C=C/c3ccc(F)cc3)C2)CC1 (stereo not given) | – | inactive: 1.61%
27 | COc1ccccc1Nc1ccnc(N2CCC[C@H]2C(=O)N2CCC(Cc3ccccc3)CC2)n1 | inconclusive: 28.2 µM [cytotoxic, single point] | –
28 | Cc1cccc(C)c1Nc1c(-c2ccccc2Cl)nc2cnccn12 | inconclusive: 39.8 µM [rising, partial curve, poor fit] | –
29 | CCCCN1CC(c2nc3ccccc3n2CCCCOc2ccccc2C)CC1=O (stereo not given) | inconclusive: 28.2 µM [cytotoxic, partial curve, poor fit] | –
30 | COc1ccc(C2C=C(c3ccccc3)Nc3nc(NS(=O)(=O)c4ccccc4)nn32)cc1 (stereo not given) | inconclusive: 25.1 µM [rising, partial curve] | –
31 | COc1cccc(NC(=O)c2cnc3c(c2)N(C(=O)Cc2ccc(C(C)C)cc2)CCC3)c1 | inconclusive: 31.6 µM [cytotoxic, single point] | –
32 | COCCCNC(=O)c1ccc(CSc2nc3cccnc3n2Cc2ccc(OC)cc2)cc1 | inconclusive: 39.8 µM [cytotoxic, single point] | –
33 | CN(C)c1nccnc1OC1CCN(C(=O)c2ccncc2)C1 (stereo not given) | – | inactive: 2.3%
34 | CC(C)(C)OC(=O)N1CCC(c2c(C(=O)NCCN3CCC(Cc4ccccc4)CC3)cnn2-c2cccc(Cl)c2)CC1 | inconclusive: 39.8 µM [cytotoxic, single point] | –
35 | COc1cccc(Nc2ncc3nc(-c4cccs4)c(=O)n(-c4ccccc4)c3n2)c1 | inconclusive: 1.58 µM [rising, partial curve, poor fit] | –
36 | O=C1NCc2ccccc2CC12CCCN2Cc1cc(F)ccc1F (stereo not given) | – | inactive: -13%
37 | O=C(Nc1ccccc1F)c1nc(S(=O)(=O)Cc2ccccc2F)ncc1Cl | inconclusive: 28.2 µM [cytotoxic, partial curve, poor fit] | –
38 | CCOC(=O)c1[nH]c2ccccc2c1NC(=O)c1ccccc1OCC | inconclusive: 39.8 µM [cytotoxic, partial curve, poor fit] | –
39 | COc1ccc(-c2cc(N3CCCC(NC(=O)c4ccc(F)c(F)c4)C3)n[nH]2)cc1 (stereo not given) | – | inactive: -19.7%
40 | COc1ccccc1CN[C@H]1CC(C)(C)[C@@H]2C[C@@](C)(O)CC[C@]12CCC(=O)NCCc1c[nH]c2ccccc12 | inconclusive: 39.8 µM [cytotoxic, single point] | –
